Data published in PMC6919601, “Identification of Plasmodium dipeptidyl aminopeptidase allosteric inhibitors by high throughput screening” (PLoS ONE, 2019).
Values joined by “and” are separate entries in the source; they are usually repeats but may differ in a detail not shown here. Equal values may be shown once. Screen size: about 110,000 compounds; about 230 (0.21%) showed an effect of 50% or more. The list shows a part of the results.

Target: DPAP1 (Plasmodium falciparum, UniProt Q8IIJ9)
Test: primary screen, percent inhibition; read by cleavage of a fluorogenic dipeptide substrate; higher = more effect of the substance
Set-up: species or system P. falciparum D10 trophozoite lysates; single well
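Note: 30 min substrate incubation versus DMSO and 10 µM JCP410 controls.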

Chain of DPAP1 (Q8IIJ9 whole entry, looked up): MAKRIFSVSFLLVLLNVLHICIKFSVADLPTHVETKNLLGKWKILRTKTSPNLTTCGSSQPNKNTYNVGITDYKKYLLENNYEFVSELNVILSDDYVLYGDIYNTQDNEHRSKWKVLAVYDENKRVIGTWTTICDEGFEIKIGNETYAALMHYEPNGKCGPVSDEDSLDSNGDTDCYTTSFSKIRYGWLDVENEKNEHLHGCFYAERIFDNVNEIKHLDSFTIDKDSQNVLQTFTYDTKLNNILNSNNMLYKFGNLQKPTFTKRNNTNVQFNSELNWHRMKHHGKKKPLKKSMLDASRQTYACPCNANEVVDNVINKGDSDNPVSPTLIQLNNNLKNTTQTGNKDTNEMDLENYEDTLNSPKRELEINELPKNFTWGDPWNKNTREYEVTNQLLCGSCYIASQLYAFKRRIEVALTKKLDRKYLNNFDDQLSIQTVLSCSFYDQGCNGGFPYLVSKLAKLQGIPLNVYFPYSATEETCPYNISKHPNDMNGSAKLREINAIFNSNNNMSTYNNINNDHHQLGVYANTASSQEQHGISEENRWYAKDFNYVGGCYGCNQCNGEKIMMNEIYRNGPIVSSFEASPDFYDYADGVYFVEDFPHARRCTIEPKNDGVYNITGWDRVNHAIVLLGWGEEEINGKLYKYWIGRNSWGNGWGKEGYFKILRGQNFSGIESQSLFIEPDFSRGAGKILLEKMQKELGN

| Compound | % Inhibition @ 10 uM |
| --- | --- |
| CCn1ncc(C(=O)NCc2ccccc2Cl)c1C | -0.171% |
| Cc1occc1C(=O)N1CCN(c2ccc([N+](=O)[O-])cc2)CC1 | 4.26% |
| O=[N+]([O-])c1cc2c3nnc(O)c-3c3n(c2cc1Cl)CCCCC3 | 9.67% |
| COc1ccc(-c2noc(CN(C(=O)c3cc(Cl)ccc3OC)C(C)C)n2)cc1 | -1.54% |
| CCCCOc1ccccc1/C=c1\sc2nc(-c3ccncc3)nn2c1=O | -1.52% |
| Cn1c2ccccc2c2cnn(CC(=O)N3CCN(Cc4ccc5c(c4)OCO5)CC3)c(=O)c21 | -3.67% |
| c1ccc(C2CCCC(c3ccccc3)S2)cc1 (centres unmarked) | 2.3% |
| COC(=O)c1sccc1NC(=O)CSc1nnc2c3ccccc3n(C)c2n1 | -5.96% |
| Nc1cc(C(=O)O)ccc1N1CCOCC1 | 3.29% |
| COc1cc2c(c(OC)c1OC)C(SC)=NC(C)(C)C2 | -1.69% |
| CCOc1ccc(OCc2ccc(C(=O)NCc3ccncc3)o2)cc1 | -5.5% |
| CC(=O)N(C)c1ccc(NC(=O)C23CC4CC(C2)CC(n2cnc(Br)n2)(C4)C3)cc1 | 6.74% |
| CC(C)CCNC(=O)c1cnn(C)c1C1CCN(C(=O)OC(C)(C)C)CC1 | 8.23% |
| CCn1c(C(=O)N2CCC(C(=O)NC3CCCC(C)C3C)CC2)cc2sccc21 (centres unmarked) | 4.95% |
| O=C(Nc1ccc(Cl)cc1)Nc1ccccc1C(F)(F)F | 1.29% |
| Cc1ccccc1CSc1nc2ccncc2n1CC(=O)NCCC1=CCCCC1 | 11.3% |
| CCOC(=O)c1conc1-c1cccs1 | -3.5% |
| CCCNC(=O)C1CN1Cc1ccccc1 (centres unmarked) | 6.52% |
| CC1Nc2ccccc2-c2c(NC(=O)CN(C)C)c3ccccc3n21 (centres unmarked) | -3.93% |
| COc1ccc2occ(CC(=O)Nc3sc4c(c3C(=O)NCc3ccccc3)CCCC4)c2c1 | 0.401% |
| Cc1cs/c(=N\C(=O)c2ccccc2)n1CCc1ccccc1 | -2.97% |
| N#C/C(=C\c1ccc(Cl)cc1Cl)c1nc(-c2ccc(Br)cc2)cs1 | 4.16% |

| Compound | % Inhibition @ 10 uM |
| --- | --- |
| COc1ccc2c(C)c(CC(=O)N3CCOCC3)c(=O)oc2c1OC | 0.895% |
| COc1cccc2c1NC(c1ccc(F)cc1)C1CC=CC21 (centres unmarked) | 8.32% |
| Cc1nc(N)sc1-c1csc(NCCc2ccccc2)n1 | 1.32% |
| CCC(CC)C(=O)Nc1nc2ccccc2s1 | -1.12% |
| Nc1c(C(=O)c2ccccc2)sc2nc3c(cc12)CN(Cc1ccccc1)CC3 | 3.96% |
| CCOCCCNC(=O)c1ccc(-n2c(C)cc3c2CCCC3)cc1 | 8.8% |
| Cc1ccnc(NC(=O)Cc2ccc(F)cc2)n1 | 0.843% |
| O=C(NCCN1CCCC1)c1ccc2c(c1)sc1nc(-c3ccc(F)cc3)cn12 | 6.13% |
| CN1CCC(N(C)Cc2ccc(Cl)cc2Cl)CC1 | 2.33% |
| Cc1cc(C)n(Cc2ccc(C(=O)Nc3cccc(Br)c3)o2)n1 | -0.67% |
| CC(C)(C)NCCn1c(-c2ccccc2)cn2c3ccccc3nc12 | 1.67% |
| CC(C)C(=O)Nc1nnc(SCc2cc(=O)n3nc(C(C)C)sc3n2)s1 | -1.55% |
| COc1ccccc1NC(=O)C1=C(C)N=C2CC(C)(C)CC(O)=C2C1c1ccccc1OC(C)C (centres unmarked) | 4.67% |
| CCOC(=O)c1c(NC(=S)NCc2ccccc2)sc2c1CC(C(C)C)OC2 (centres unmarked) | -3.33% |
| Clc1ccc(N2CCN(Cc3ccc(Br)s3)CC2)cc1 | 3.16% |
| O=C1CCCC2=C1C(c1ccc(O)c(Cl)c1)C1=C(CCCC1=O)N2Cc1ccccc1 | 6.58% |
| O=C(NCCCc1ccccc1)c1ccc(CS(=O)(=O)c2ccc(Br)cc2)o1 | 1.68% |
| CCCN1CCN(C(=O)c2nn(C)c3c2CS(=O)(=O)c2ccccc2-3)CC1 | -1.38% |
| OCC1CCCCN1Cc1ccc(F)c(F)c1 (centres unmarked) | 2.65% |
| COc1ccc(S(=O)(=O)N2CCC(C(=O)NCC3CCCO3)CC2)cc1 (centres unmarked) | -2.45% |
| COc1cc(CN2CCSCC2)c([N+](=O)[O-])cc1OC | -2.81% |
| COCCNc1oc(/C=C/c2ccccc2OC)nc1C#N | -2.57% |

| Compound | % Inhibition @ 10 uM |
| --- | --- |
| CC1(C)CC(=O)C(/C=N/CCN2CCN(C(=O)CC3CCCC3)CC2)=C(O)C1 | -0.736% and 6.12% |
| Cc1ccc(C(=O)Nc2ccc(Cl)cc2C(=O)O)cc1C | 2.01% |
| CCCCN(Cc1ccccc1)C1CCN(CCc2ccccc2)CC1 | 2.1% |
| O=C(O)CN(CC(=O)Nc1ccccc1)S(=O)(=O)c1ccc(Br)cc1 | -3.45% |
| COc1cc(C=O)ccc1OCC(=O)N1CCOCC1 | 1.58% |
| c1ccc(CN2CCN(c3nc4ccccc4c4nc(-c5ccccc5)nn34)CC2)cc1 | -4.21% |
| COc1c(C(=O)NCc2ccc3c(c2)OCO3)ccc2ccccc12 | -1.68% |
| CCCCN(C)C(=O)c1oc(=O)c2ccccc2c1-c1ccc(C)cc1 | 0.208% |
| CCCOC(=O)/C(=C/c1ccc2c(c1)OCO2)NC(=O)c1ccccc1Cl | 3.27% |
| CCOC(=O)C1=C(C)OC(N)=C(C#N)C1c1ccc(C)cc1C (centres unmarked) | -0.744% |
| Cc1cc(C)c(S(=O)(=O)Nc2cc(Cl)c(Cl)cc2Cl)c(C)c1 | 0.247% |
| FC(F)(F)c1nc(N2CCOCC2)nc2c1CCCCC2 | -13.7% |
| CCn1cc(CNC(=O)c2cc(-c3ccccc3)nc3ccccc23)cn1 | 1.39% |
| Nc1nc(-c2cc3cc(Br)cc(Br)c3oc2=O)cs1 | 18.1% |
| O=C(O)CCC(=O)Nc1ccc(N2CCN(c3ccc(Cl)cc3)CC2)cc1 | 0.214% |
| O=C(Nc1cc(C(F)(F)F)ccc1Cl)c1ccco1 | -0.294% |
| c1ccc2c(c1)nc1n2CN(C2CCCCCC2)CN1 | 0.415% |
| Cn1c(=O)c2c(nc(SCc3ccccc3C#N)n2C)n(C)c1=O | -1.6% |
| CN1C(=O)C2(C(C#N)=C(N)OC3=C2C(=O)CC(C)(C)C3)c2ccccc21 (centres unmarked) | 4% |
| CCC(Oc1ccccc1)C(=O)Nc1ccc(C(N)=O)cc1 (centres unmarked) | -3.24% |
| Cc1c(C(=O)O)nn(-c2ccc(F)cc2)c(=O)c1C#N | -0.736% |
